The source of these data is ChEMBL document CHEMBL4888484, “Replenishing the malaria drug discovery pipeline: Screening and hit evaluation of the MMV Hit Generation Library 1 (HGL1) against asexual blood stage Plasmodium falciparum ,using a nano luciferase reporter read-out” (2022).

In all, about 150,000 compounds went through this assay and about 540 (0.36%) showed an effect of 50% or more. This is one part of the list.

The assay relates to Plasmodium falciparum. The assay is described as follows: Primary screen in NF54 nanoGlo assay, in single point, at 2uM, 72h; a lower Z score goes with more inhibition. The note with it: timepoint 72 hour. It counts as functional, Erythrocyte.
One may read the % Inhibition as the drop in the measured response relative to a control, in per cent. As for `Cc1cc(-c2cc(-c3cc(F)cc(F)c3)nc(CC(N)=O)n2)c(C)o1`, the “% Inhibition” value was -8% and the Z score is 1.29.

As to `CC(C)c1csc(CN2CCN(C3CCN(C(C)C)CC3)[C@@H](CCO)C2)n1`, the “% Inhibition” value is reported as -5% and the Z score was 0.9.

As for `C[C@@H]1Oc2ccc(NC(=O)COc3ccccc3)cc2CN(Cc2ccc(F)cc2)C1=O`, the “% Inhibition” value is given as -1% and the Z score is 0.16.

Take `Cc1cc([C@@H](C#N)c2ccc(Cl)cc2)c(Cl)cc1NC(=O)Cc1ccc(Cl)cc1`: the “% Inhibition” value was -3% and the Z score is 0.66.

With `COc1cc(CN2CCC(F)(c3nc(-c4cnccn4)no3)CC2)ccc1O`, the “% Inhibition” value is -4% and the Z score is 0.73.

Regarding `COc1ccc2ncc(=O)n(CCOc3ccccc3)c2c1`, the “% Inhibition” value came out at 32% and the Z score is on record as -4.38.

Consider `N#Cc1ccc(S(=O)(=O)N2CC(c3nc(CCOCc4ccccc4)no3)C2)cc1`, for which the “% Inhibition” value was -18% and the Z score turned out to be 2.34.

On to `CC1CC(n2nnc3c2CN(C(=O)c2ccc4c(n2)CCCN4)CC3)C1` (centres undefined), for which the “% Inhibition” value amounted to 3% and the Z score is reported as -0.65.

Take `COc1ccc(Cc2ncc3c(n2)CN(C(=O)[C@H](N)CC(C)C)C3)cc1`: the “% Inhibition” value is -13% and the Z score is on record as 1.83.

On to `C[C@@H]1CC(=O)N[C@H](C(=O)NCCn2ccnc2)C1`, for which the “% Inhibition” value was -13% and the Z score came to 1.58.

`Cc1cccc(Cl)c1CC(=O)N1CCC[C@H](O)C1`: the “% Inhibition” value was -4% and the Z score was 0.66.

As for `Cc1oc(-c2[nH]ncc2C(=O)N2CCCC2)cc1S(=O)(=O)NCc1cccnc1`, the “% Inhibition” value came out at 2% and the Z score is given as -0.25.

For `Cc1ccccc1-c1nc2n(n1)C1(CCCCC1)[C@@H]1CCCC[C@@H]1N2C(=O)c1ccco1`, the “% Inhibition” value is reported as -10% and the Z score worked out at 0.89.

On to `CCN(C(=O)c1cccc(N2CCNC2=O)c1C)c1nc(C)cs1`, for which the “% Inhibition” value is on record as -5% and the Z score was determined as 0.53.

Turning to `CC(C)(C(=O)N1CCC(C(=O)N2CCCC2)CC1)c1ccc2c(c1)OCO2`, the “% Inhibition” value is reported as -4% and the Z score was 0.6.

In the case of `CCc1nccn1CCC(=O)N1CCC[C@H](c2nnc[nH]2)C1`, the “% Inhibition” value is on record as -5% and the Z score came out at 0.81.

Regarding `O=C(Nc1nc(C2CC3CCC2C3)cs1)N1C2CCC1CC(O)C2` (centres undefined), the “% Inhibition” value is -3% and the Z score is given as 0.47.

On to `C[C@@]1(C2CCNCC2)NC(=O)N(CCCc2ccccc2)C1=O`, for which the “% Inhibition” value is -8% and the Z score is on record as 1.62.

Regarding `CC(C)CCc1nc(N2CCCN(C(=O)c3cccc4ccccc34)CC2)c2cnn(-c3cccc(Cl)c3)c2n1`, the “% Inhibition” value is listed as 2% and the Z score is given as -0.28.

Regarding `CCCC[C@@H]1C[C@@H]1C(=O)N1CCC(n2cc(C3CCCC3)nn2)CC1`, the “% Inhibition” value was -18% and the Z score came to 2.29.

Regarding `O=C(NCCc1ccccc1F)N1CCN([C@@H](c2ccccc2)c2ccc(Cl)cc2)CC1`, the “% Inhibition” value is on record as -1% and the Z score came out at 0.06.

On to `Cn1c(C2CC2)nn(C[C@H]2CCCO2)c1=O`, for which the “% Inhibition” value is -10% and the Z score worked out at 1.5.

For the compound `CCO[C@H]1CN(C(=O)COc2ccc(Cl)cc2C)C[C@@H]1O`, the “% Inhibition” value is -9% and the Z score is recorded as 1.56.

`Cn1cnc2c(NCC(=O)N3CCN(c4ccccc4)CC3)ncnc21`: the “% Inhibition” value is on record as -1% and the Z score is recorded as 0.15.

In the case of `COc1cc(-c2nc(CN3[C@@H]4CC[C@H]3CNC(=O)C4)c(C)o2)cc2c1OCO2`, the “% Inhibition” value is recorded as -12% and the Z score is on record as 1.33.

Consider `CNS(=O)(=O)[C@H]1CCN(Cc2ccc(Oc3ccccc3)o2)C1`, for which the “% Inhibition” value worked out at 35% and the Z score is given as -3.95.

Take `O=S1(=O)CCCC[C@@H]1CNCc1cnnn1Cc1ccccc1`: the “% Inhibition” value is on record as -13% and the Z score came to 2.5.

For the compound `CS(=O)(=O)N1CCc2nc(NC(=O)c3cncc(Br)c3)sc2C1`, the “% Inhibition” value was -3% and the Z score is 0.45.

With `Cc1ccc(N2CC(C(=O)NC3CCN4CCCCC34)CC2=O)cc1` (centres undefined), the “% Inhibition” value is on record as 2% and the Z score is on record as -0.32.

With `CC[C@H](NS(=O)(=O)C1CC1)c1cc(C)ccn1`, the “% Inhibition” value amounted to 4% and the Z score is given as -0.77.

As to `CCc1ccc([C@@H]2CCCCN2C(=O)c2ccc3cc[nH]c3n2)o1`, the “% Inhibition” value is given as -1% and the Z score came out at 0.18.

With `COc1ccc2c(c1)c(N1CCCC1=O)c(C(=O)NC1CCCCC1)n2C`, the “% Inhibition” value was 5% and the Z score was -0.74.

For `CC1CCCN(C(=O)CN2CCCC2c2nnc3ccccn23)C1` (centres undefined), the “% Inhibition” value is on record as -2% and the Z score was found to be 0.42.

For the compound `CCS(=O)(=O)N1CCC[C@H]1c1nnc(C(=O)Nc2ccc3c(c2)OCO3)s1`, the “% Inhibition” value was -5% and the Z score is 0.92.

On to `CCCc1cncc(OCC(=O)Nc2ccc(OC)c(OC)c2)c1`, for which the “% Inhibition” value is given as 9% and the Z score is -1.51.

Take `COc1ccc(CNC(=O)C[C@@H]2O[C@H](CNCc3ccccn3)[C@@H](O)[C@H]2O)cc1`: the “% Inhibition” value is listed as -6% and the Z score stood at 0.8.

Turning to `O=C(CC1CCCCC1)N[C@H]1CCCN(c2cc(-c3ccccc3)n[nH]2)C1`, the “% Inhibition” value is listed as -12% and the Z score came to 1.24.

For the compound `Cn1nncc1S(=O)(=O)NC[C@@]1(C)CCCN1Cc1ccccc1`, the “% Inhibition” value was -3% and the Z score stood at 0.5.

As for `CCCCS(=O)(=O)N1CC[C@H](CNc2nccn(CC(C)C)c2=O)C1`, the “% Inhibition” value was -12% and the Z score is given as 1.82.

For `O=C(CCc1nc(-c2ccc(S(=O)(=O)N3CCOCC3)cc2)no1)NC1CCCCC1`, the “% Inhibition” value is recorded as -7% and the Z score is reported as 0.84.

`C[C@H](O)c1ccc(CCNC(=O)C2CCC2)s1`: the “% Inhibition” value came to 0% and the Z score is 0.09.

On to `O=C(CCc1ncc(-c2ccccc2)o1)N1CCc2ccccc2C1`, for which the “% Inhibition” value is reported as -1% and the Z score worked out at 0.19.

Regarding `COc1ccc(N2CCN(C(=O)c3ccn4c(-c5ccccc5)nnc4c3)CC2)cc1`, the “% Inhibition” value is reported as -3% and the Z score was 0.29.

Turning to `Cc1cc(NC(=O)C2CN(C(=O)c3cc(C)on3)C2)no1`, the “% Inhibition” value is -9% and the Z score worked out at 1.48.

With `O=C1OCCN1CC(=O)N(CC1CC1)C1CCCCC1`, the “% Inhibition” value is recorded as -11% and the Z score came out at 1.73.

On to `Clc1ccc(-c2csc3ncnc(NC4CCCCCCC4)c23)cc1`, for which the “% Inhibition” value is given as -2% and the Z score came to 0.29.

Consider `COc1ccc(CN2C(=O)COC[C@H]2C(=O)N2CCC(C)CC2)cc1OC`, for which the “% Inhibition” value is -2% and the Z score is reported as 0.28.

Consider `O=C(CCN1CCN(c2ccc(O)cc2)CC1)NC1CCCCC1`, for which the “% Inhibition” value is reported as 0% and the Z score is on record as -0.05.

For the compound `C[C@H](NC(=O)c1cncs1)c1nnc(N)s1`, the “% Inhibition” value came out at 1% and the Z score is -0.17.

Consider `N#Cc1cnn2cc(-c3cc(NCc4cccnc4)nc4[nH]ccc34)cnc12`, for which the “% Inhibition” value was -13% and the Z score came to 2.56.

`O=c1[nH]cnc2c1cnn2Cc1ccc(F)cc1`: the “% Inhibition” value is listed as -12% and the Z score is given as 1.4.

On to `CC[C@H]1c2cccn2CCN1Cc1cc(C(N)=O)cs1`, for which the “% Inhibition” value is given as -9% and the Z score stood at 1.16.
